Test results as given in article PMC11995724, “Antibiotic target discovery by integrated phenotypic and activity-based profiling of electrophilic fragments” (Cell chemical biology, 2025).
Hit rate of the full screen: of about 3,200 compounds, about 110 (3.4%) showed an effect of 50% or more. Some of the results follow.

tested on: T1, V. cholerae SAD30; set-up: species or system S. aureus MSSA476 (TSB) or V. cholerae SAD30 (LB); 384-well bacterial growth screen at 25 uM, OD600 relative to DMSO control; details: relative growth, OD600, LB; 25 µM; inhibitor
T1 construct: SAD30

| SMILES | % of control remaining [%] |
| --- | --- |
| O=C(CCl)N1CCN(S(=O)(=O)c2ccc([N+](=O)[O-])cc2)CC1 [4-J07, 2-chloro-1-[4-(4-nitrobenzenesulfonyl)piperazin-1-yl]ethan-1-one] | 97.8219 |
| COc1ccc(S(=O)(=O)N2CCSSCC2)cc1C [10-D11, 5-(4-methoxy-3-methylbenzenesulfonyl)-1,2,5-dithiazepane] | 86.0316 |
| C=CC(=O)N1CCC(C(=O)N2CCCC(C)(CC)C2)CC1 (stereo not shown) [2-J10, 1-[4-(3-ethyl-3-methylpiperidine-1-carbonyl)piperidin-1-yl]prop-2-en-1-one] | 91.2767 |
| C=CC(=O)NCCc1nc(C)cs1 [2-D05, N-[2-(4-methyl-1,3-thiazol-2-yl)ethyl]prop-2-enamide] | 94.8278 |
| C=CC(=O)N1CCCC1 [1-G08, 1-(pyrrolidin-1-yl)prop-2-en-1-one] | 91.9283 |
| CN(C)C1=NC(N)=NC(=C(C#N)C(=O)CCl)N1 [10-P20, 2-[4-amino-6-(dimethylamino)-1,2-dihydro-1,3,5-triazin-2-ylidene]-4-chloro-3-oxobutanenitrile] | 100.526 |
| N#CC(=Cc1cc(F)ccc1F)C(=O)NC1CCCCC1 [8-G08, 2-cyano-N-cyclohexyl-3-(2,5-difluorophenyl)prop-2-enamide] | 68.7288 |
| C=CC(=O)Nc1cnc(C2CCCC2)nc1 [1-G17, N-(2-cyclopentylpyrimidin-5-yl)prop-2-enamide] | 90.284 |
| Cc1ccc(C(=O)CCl)o1 [10-A09, 2-chloro-1-(5-methylfuran-2-yl)ethan-1-one] | 117.514 |
| COc1ccc(CNC(=O)CCl)cc1OC [5-O11, 2-chloro-N-[(3,4-dimethoxyphenyl)methyl]acetamide] | 100.704 |
| CC(Cl)C(=O)N1CCCN2c3ccccc3CC2C1 (stereo not shown) [7-G06, 1-{1H,2H,3H,4H,5H,11H,11aH-[1,4]diazepino[1,2-a]indol-2-yl}-2-chloropropan-1-one] | 76.3919 |
| C=CC(=O)NC1(c2cc(C)no2)CCOCC1 [1-F18, N-[4-(3-methyl-1,2-oxazol-5-yl)oxan-4-yl]prop-2-enamide] | 107.949 |
| Cc1cc(C=C(C#N)C(=O)Nc2nccs2)cc(C)c1O [9-D13, 2-cyano-3-(4-hydroxy-3,5-dimethylphenyl)-N-(1,3-thiazol-2-yl)prop-2-enamide] | 84.7723 |
| Cc1ccc(C)c(Sc2ccc(NC(=O)CCl)cc2)c1 [4-H09, 2-chloro-N-{4-[(2,5-dimethylphenyl)sulfanyl]phenyl}acetamide] | 88.1604 |
| CC(Cl)C(=O)Nc1ccc(F)c(F)c1F (stereo not shown) [4-O08, 2-chloro-N-(2,3,4-trifluorophenyl)propanamide] | 95.579 |
| C=CC(=O)N(C)CC(=O)N1CCN(c2nsc3ccccc23)CC1 [2-N10, N-{2-[4-(1,2-benzothiazol-3-yl)piperazin-1-yl]-2-oxoethyl}-N-methylprop-2-enamide] | 84.792 |
| CC(Cl)C(=O)c1ccc2c(c1)CCC2 (stereo not shown) [10-M08, 2-chloro-1-(2,3-dihydro-1H-inden-5-yl)propan-1-one] | 102.085 |
| C=CC(=O)NCc1ccc(-n2ccnc2)cc1 [1-M18, N-{[4-(1H-imidazol-1-yl)phenyl]methyl}prop-2-enamide] | 86.3976 |
| C=CC(=O)Nc1c(C)cnn1CC1CC1 [1-M19, N-[1-(cyclopropylmethyl)-4-methyl-1H-pyrazol-5-yl]prop-2-enamide] | 84.4544 |
| COc1ccc(C=C(C#N)C(=O)Nc2cccnc2)cc1OC [8-M05, 2-cyano-3-(3,4-dimethoxyphenyl)-N-(pyridin-3-yl)prop-2-enamide] | 74.847 |
| Cn1ccc(C(=O)CCl)c1 [10-D08, 2-chloro-1-(1-methyl-1H-pyrrol-3-yl)ethan-1-one] | 103.176 |
| COc1ccc(S(=O)(=O)N2CCCCC2)cc1NC(=O)CCl [6-G13, 2-chloro-N-[2-methoxy-5-(piperidine-1-sulfonyl)phenyl]acetamide] | 82.0552 |
| C=CC(=O)N1CCC(C)C1 (stereo not shown) [2-H17, 1-(3-methylpyrrolidin-1-yl)prop-2-en-1-one] | 91.7398 |

| SMILES | % of control remaining [%] |
| --- | --- |
| COc1ccc2[nH]c3c(c2c1)CCCC3NC(=O)CCl (stereo not shown) [5-G07, 2-chloro-N-(6-methoxy-2,3,4,9-tetrahydro-1H-carbazol-1-yl)acetamide] | 96.8372 |
| CC(Cl)C(=O)N1CCN(c2ccccc2)CC1.Cl (stereo not shown) [4-E14, 2-chloro-1-(4-phenylpiperazin-1-yl)propan-1-one hydrochloride] | 93.5087 |
| CCc1ccc(Cc2cnc(NC(=O)CCl)s2)cc1 [4-F19, 2-chloro-N-{5-[(4-ethylphenyl)methyl]-1,3-thiazol-2-yl}acetamide] | 82.8122 |
| Cc1c(C=C(C#N)C(=O)Nc2cnc3ccccc3c2)cc(C#N)n1C [9-N15, 2-cyano-3-(5-cyano-1,2-dimethyl-1H-pyrrol-3-yl)-N-(quinolin-3-yl)prop-2-enamide] | 86.5398 |
| C=CC(=O)N1CCN(S(=O)(=O)c2ccc(C(C)(C)C)cc2)CC1 [3-A19, 1-[4-(4-tert-butylbenzenesulfonyl)piperazin-1-yl]prop-2-en-1-one] | 119.79 |
| CC(Cl)C(=O)N1C[C@@H]2CCC[C@@]2(c2nc(-c3cnccn3)no2)C1 (mixture of isomers) [7-C03, rac-1-[(3aR,6aR)-3a-[3-(pyrazin-2-yl)-1,2,4-oxadiazol-5-yl]-octahydrocyclopenta[c]pyrrol-2-yl]-2-chloropropan-1-one] | 101.239 |
| CC(Cl)C(=O)N1C2CCC1CC(O)(Cc1ccc(F)cc1F)C2 (stereo not shown) [7-G18, 2-chloro-1-{3-[(2,4-difluorophenyl)methyl]-3-hydroxy-8-azabicyclo[3.2.1]octan-8-yl}propan-1-one] | 71.8982 |
| O=C(CCl)c1ccc2c(c1)CCN(C(=O)C(F)(F)F)C2 [10-E09, 1-[6-(2-chloroacetyl)-1,2,3,4-tetrahydroisoquinolin-2-yl]-2,2,2-trifluoroethan-1-one] | 98.6558 |
| CC(Cc1ccc(Cl)s1)NC(=O)CCl (stereo not shown) [5-N11, 2-chloro-N-[1-(5-chlorothiophen-2-yl)propan-2-yl]acetamide] | 97.5097 |
| CC(C)c1cccc(C(C)C)c1NC(=O)CCl [5-G13, N-[2,6-bis(propan-2-yl)phenyl]-2-chloroacetamide] | 96.501 |
| CC(Cl)C(=O)Nc1ccc2c(c1)OCCCO2 (stereo not shown) [4-K10, 2-chloro-N-(3,4-dihydro-2H-1,5-benzodioxepin-7-yl)propanamide] | 96.6142 |
| C=CC(=O)Nc1cc(S(=O)(=O)N2CCCCCC2)ccc1OC [1-A15, N-[5-(azepane-1-sulfonyl)-2-methoxyphenyl]prop-2-enamide] | 83.707 |
| CNC(=O)c1ccn(C2CCCN(C(=O)CCl)C2)n1 (stereo not shown) [5-I08, 1-[1-(2-chloroacetyl)piperidin-3-yl]-N-methyl-1H-pyrazole-3-carboxamide] | 95.156 |
| COc1ccc(N(Cc2cccs2)C(=O)CCl)cc1 [5-O17, 2-chloro-N-(4-methoxyphenyl)-N-[(thiophen-2-yl)methyl]acetamide] | 96.501 |
| CC(Cl)C(=O)N1CCN(c2nnnn2-c2ccccc2)CC1 (stereo not shown) [7-I12, 2-chloro-1-[4-(1-phenyl-1H-1,2,3,4-tetrazol-5-yl)piperazin-1-yl]propan-1-one] | 70.1801 |
| C=CC(=O)N1CCc2nn(C(C)C)c(=O)cc2C1 [3-B22, 6-(prop-2-enoyl)-2-(propan-2-yl)-2H,3H,5H,6H,7H,8H-pyrido[4,3-c]pyridazin-3-one] | 122.966 |
| Cc1cc(C)c(NC(=O)C(C#N)=Cc2cc(F)ccc2F)c(C)c1 [8-A10, 2-cyano-3-(2,5-difluorophenyl)-N-(2,4,6-trimethylphenyl)prop-2-enamide] | 85.1801 |
| N#CC(=Cc1cc(C#N)cs1)C(=O)NC(N)=O [8-F04, {2-cyano-2-[(4-cyanothiophen-2-yl)methylidene]acetyl}urea] | 78.7899 |
| O=C(CCl)NCC(=O)Nc1nccs1 [5-G22, 2-chloro-N-{[(1,3-thiazol-2-yl)carbamoyl]methyl}acetamide] | 111.632 |
| C=CC(=O)N1CC[C@H](Oc2ccc(F)cc2)C1 [2-A15, 1-[(3S)-3-(4-fluorophenoxy)pyrrolidin-1-yl]prop-2-en-1-one] | 86.1816 |
| COc1ccc(C=C(C#N)C(=O)Nc2ccccc2C(=O)O)cc1O [9-A18, 2-[2-cyano-3-(3-hydroxy-4-methoxyphenyl)prop-2-enamido]benzoic acid] | 87.2196 |
| Cc1ccsc1C=C(C#N)C(=O)NC1CCCCC1C (stereo not shown) [8-G07, 2-cyano-N-(2-methylcyclohexyl)-3-(3-methylthiophen-2-yl)prop-2-enamide] | 56.0843 |
| C=CC(=O)NCc1ccnc(N2CCSCC2)c1 [1-I14, N-{[2-(thiomorpholin-4-yl)pyridin-4-yl]methyl}prop-2-enamide] | 94.0209 |
